Measurements from PubChem BioAssay AID1508624 (National Center for Advancing Translational Sciences (NCATS), 2021).
In all, about 48,000 compounds went through this assay and about 120 (0.25%) were called active. About 4% were inconclusive and are not listed. The call rests on the fitted dose curve; in most records, active means well fitted activation curve with a large enough effect; inconclusive means small, poorly fitted or top-dose-only effect, or another doubt; inactive means no such curve, though single readings can be large or run the other way. This is one part of the list.

Assay: Primary qHTS for Identification of Small Molecule Activators of Huntingtin-Antisense Promoter Activity; further: nearly all actives have a fitted effect of over 55% in size
Conditions: HEK293 HTT-AS promoter firefly luciferase reporter, 24 h; series mostly up to 57.5 µM; activity change, positive = activation: at the top concentration
Method in brief: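 Firefly luciferase signal from promoter-reporter HEK293 cells was scaled between vehicle (0%) and zero RLU (-100%). Compounds were tested at final concentrations of up to 57.5 uM over 24 h at 37 degrees C. PTC124 at 50 uM final served as control inhibitor.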

Activity change, positive = activation, inactive:
COc1ccc(-c2cc(OC(=O)c3ccc(Cl)cc3)c3c(C)oc(C)c3c(=O)c2)cc1 -10.5%
Cc1ccc(C(=O)Nc2cccc(-c3nc4cccnc4s3)c2C)cc1 -19.4%
COC(=O)c1ccc(Nc2nnc(-c3ccc(C)c(S(=O)(=O)N4CCN(C)CC4)c3)c3ccccc23)cc1 5.39%
Cc1cccc(CN2C(=O)c3ccccc3S(=O)(=O)c3ccc(C(=O)NCCC4=CCCCC4)cc32)c1 -15%
CCC1CCCCN1S(=O)(=O)c1ccc(C(=O)Nc2sc3c(c2C(=O)NC)CCC3)cc1 (stereo not drawn) -34.9%
COc1ccc(OCC(=O)OCc2cc(=O)n3cc(C)sc3n2)cc1 -9.39%
COc1ccc(NC(=O)c2cc3nc(-c4ccc(C)c(C)c4)cc(C(F)(F)F)n3n2)cc1 -6.43%
COc1ccccc1CNC(=O)c1oc2ccc(S(=O)(=O)N3CCCCC3)cc2c1C -21%
CCc1ccccc1NC(=O)c1ccc2c(O)c(S(=O)(=O)c3ccccc3)c(=O)[nH]c2c1 -6.91%
COc1ccc(-c2cc(C(C)=O)c(C)n2CCC(=O)NCc2ccccc2OC)cc1 -21.7%
Cc1nn(-c2ccccc2)c(OC(=O)C(C)C)c1Sc1ccccc1 -8%
CCc1ccccc1N(C)C(=O)Cc1c(C(=O)O)c(C)cn1C -10.7%
Brc1cccc(CNCCSc2nnnn2-c2ccccc2)c1 10.4%
Cc1cc(C)c(NC(=O)C(C)n2nc(-c3ccc(C)c(C)c3)ccc2=O)c(C)c1 (stereo not drawn) -12.4%
Cc1cc(C)cc(OCC(=O)NCCc2nc3ccccc3[nH]2)c1 -21.7%
Cc1ccc(NC(=O)Cc2ccc(-n3c(C)nc4cccnc43)cc2)cc1C -35%
CCOC(=O)c1cc(-c2ccccc2)n(CCCC(=O)Nc2ccc(C(C)C)cc2)c1C -42.4%
COC(=O)c1cccc(-n2c(CCC(=O)O)ccc2-c2ccc(OC)cc2)c1 -13.6%
Cc1ccc(Cl)cc1NC(=O)C(C)n1nnc2sc(-c3ccccc3)cc2c1=O (stereo not drawn) 1.73%
COc1cccc(CNC(=O)CCc2cn(Cc3ccccc3Cl)c3ccccc23)c1 -25.1%
COc1ccc(Cn2c(SCc3ccc(C(=O)NC4CCCC4)cc3)nc3ccncc32)cc1 -27.7%
CNC(=O)c1cc(Oc2ccc(NC(=O)Nc3ccc(Cl)c(C(F)(F)F)c3)c(F)c2)ccn1 -32.1%
CCOC(=O)c1c(C)oc2ncnc(N3CCN(c4ccccc4OC)CC3)c12 -31.3%
O=C(CC1C(=O)N(c2ccccc2)C(=O)N1CCC1=CCCCC1)Nc1ccc(F)cc1 (stereo not drawn) -35.3%
Cc1ccccc1NC(=O)CSc1nc(-c2ccccc2C)nc2cc(=O)[nH]n12 -12%
COc1ccccc1N(CC(=O)NCCSCc1ccccc1)S(=O)(=O)c1ccc(C)cc1 -42.4%
COCCNC(=O)Cn1nc(N2CCN(c3ccccc3OC)CC2)ccc1=O -3.53%
CCOc1ccc(NC(=O)N2CCN(S(=O)(=O)c3ccc4c(ccn4C)c3)CC2)cc1 -17.1%
CCc1ccc(C(=O)c2cn(CC(=O)Nc3ccc(F)cc3)c3ccc(OC)cc3c2=O)cc1 -11.4%
CC(=O)N1CCN(c2csc3ccc(F)cc3c2=O)CC1 8.32%
O=C1CN(C(=O)Cc2ccc(F)cc2)C(c2ccccc2)c2cc(Cl)ccc2N1 (stereo not drawn) -20.8%
COc1ccc(NC(=O)Cn2c(=O)n(C(C)C)c(=O)c3oc4ccccc4c32)cc1Cl -19.2%
COc1ccc(N2CCN(S(=O)(=O)CCNC(=O)Cc3ccc(Cl)cc3)CC2)cc1 8.57%
CCn1cc(S(=O)(=O)c2cc(C)cc(C)c2)c(=O)c2cc(F)c(N3CCCC3)cc21 -2.44%
CCOc1ccc(CCNC(=O)c2nnc(Cc3cc(OC)c(OC)c(OC)c3)o2)cc1OCC 1.71%
CN(C)c1ccc(C(CNC(=O)c2ccc(C(C)(C)C)cc2)N2CCOCC2)cc1 (stereo not drawn) -17.6%
COc1cc(OC)cc(C(=O)Nc2ccccc2-c2nc3ccccc3s2)c1 0.297%
COc1ccc2[nH]c(C)c(CCNS(=O)(=O)c3cc(F)ccc3OC)c2c1 -9.11%
COc1ccc(CCNC(=O)C2(c3cccs3)CCOCC2)cc1OC -8.58%
COc1ccc(-c2nc3c4ccccc4n(CC(=O)Nc4cc(F)ccc4F)c(=O)n3n2)cc1 21.3%
CCOc1ccc(OC(=O)c2cn(-c3ccc(C)cc3)c(=O)c3ccccc23)cc1 -16.7%
COc1cc(-c2ccno2)ccc1S(=O)(=O)N1CCN(c2ccc(C(C)=O)cc2)CC1 -33.7%
COc1ccc(-c2cc(C(F)(F)F)n3nc(C(=O)Nc4cc(Cl)cc(Cl)c4)cc3n2)cc1 -3.08% [at 11.5 µM, percent change from vehicle, -100% = no light]
CCCCC(=O)Nc1ccccc1C(=O)OCc1cc(=O)n2nc(C3CCCCC3)sc2n1 -23.6%
CCN(CC)C(=O)Cn1c(=O)n(Cc2ccc(C(=O)NCc3ccccc3Cl)cc2)c(=O)c2ccccc21 -18.6%
O=C(CSc1nccn1-c1ccc(F)cc1)Nc1ccc(OC(F)(F)F)cc1 -18.5%
CCOC(=O)c1c(-c2ccc(Br)cc2)csc1NC(=O)c1ccccc1F -11.9%
Cc1ccc2c(C)c(C(=O)N(Cc3ccc(Cl)cc3)C3CCS(=O)(=O)C3)oc2c1 (stereo not drawn) -25.6%
COc1cc2c(cc1OC)C(COc1ccc3c(C)cc(=O)oc3c1)N(C(=O)c1ccc(Cl)cc1)CC2 (stereo not drawn) -4.79%
O=C1CN(C(=O)c2ccccc2C(F)(F)F)C(c2ccccc2)c2cc(F)ccc2N1 (stereo not drawn) -12.8%
O=C1[C@@H]2CSC(c3ccc(C(F)(F)F)cc3)N2C(=O)N1c1ccccc1 (stereo partly drawn) -29.3%
CCCNc1c(NC(=O)c2ccc(OCCC)cc2)c(=O)oc2ccccc12 -18.1%
Cc1ccccc1Cn1c(=O)n(Cc2ccc(Cl)cc2)c(=O)c2cccnc21 -16.8%
COc1ccc(OC)c(NC(=O)CSC2=Nc3ccccc3C3=NC(CC(=O)NCc4ccc5c(c4)OCO5)C(=O)N23)c1 (stereo not drawn) -22.1%
COc1cc(Cl)c(C)cc1NC(=O)c1sc2nc3n(c(=O)c2c1C)CCCCC3 -5.42%
CCOC(=O)c1c(NC(=O)c2nc(SC(C)C)ncc2Cl)sc2c1CCCC2 17.1%
Cn1c(SCc2ccc(C(F)(F)F)cc2)nc2c([nH]c3ccccc32)c1=O -6.85%
O=c1cc(N2CCN(c3ccc(F)cc3)CC2)[nH]c(=O)n1-c1ccc(Br)cc1 -2.34%
COc1cc(NC(=O)N2CCC(CN3CCCC3)CC2)cc(OC)c1OC -7.03%
COc1cc(C(=O)NCC(c2cccnc2)N2CCc3ccccc32)cc(OC)c1OC (stereo not drawn) -16.5%
CN(C)c1ccc(C(CNS(=O)(=O)c2ccccc2)N2CCc3ccccc32)cc1 (stereo not drawn) 9.97%
CC(=O)c1c(C)oc2c(Cl)cc(NS(=O)(=O)c3ccc(Cl)cc3)cc12 2.07%
Cc1ccc(CNC(=O)C(CC(C)C)NS(=O)(=O)c2ccc3c(c2)oc(=O)n3C)cc1 (stereo not drawn) -9.1%
Cc1cccc(N2CCN(CCNC(=O)C3COc4ccccc4C3)CC2)c1C (stereo not drawn) -24.7%
O=C(NCc1ccc(Cl)cc1)c1cnc(N2CCCCC2)c2ccccc12 -35%
O=C(O)c1cc(-n2c(/C=C\c3ccc(F)cc3)nc3ccccc3c2=O)ccc1Cl -12.3%
Cc1ccc(Cc2nc3ccccc3nc2SCC(=O)Nc2ccc3c(c2)OCO3)cc1 -33.5%
Cc1ccc(S(=O)(=O)NCCS(=O)(=O)N2CCN(c3ccccc3)CC2)cc1 -28.9%
COc1ccc(CNC(=O)C2CCN(Cc3nc(-c4ccc(Cl)cc4)oc3C)CC2)cc1 -6.77%
Cc1nc(N2CCOCC2)c2c(C(=O)Nc3cccc(C(F)(F)F)c3)c(C)oc2n1 -18.2%
CSc1ccc(CCNC(=O)CCc2c(C)nc3c(c(C)nn3-c3ccccc3)c2C)cc1 2.05%
O=C(NC1CC(=O)N(c2cccc(F)c2)C1)c1ccc(Br)o1 (stereo not drawn) -10.1%
CC(=O)c1ccc(NC(=O)CCSc2nc(-c3ccco3)cc(C(F)(F)F)n2)cc1 10.2%
Cc1c(S(=O)(=O)c2cccc(Cl)c2)nnn1-c1cccc(C(F)(F)F)c1 -29.8%
COc1cc(C(=O)Nc2ccc3nc(SCc4ccc(C)cc4)sc3c2)cc(OC)c1OC -29.3%
COc1ccc2c(c1OC)C(=O)O[C@@H]2[C@H]1c2c(cc3c(c2OC)OCO3)CCN1C -24.2%
CCCC(=O)N1CCN(c2nc3c(OC)ccc(C)c3s2)CC1 -10.6%
CCOc1ccc(-n2c(SCC(=O)N3CCOCC3)nc3c([nH]c4ccccc43)c2=O)cc1 -18%
CC(C)(C)OC(=O)N1CCC(c2c(C(=O)N3CCN(C(=O)c4ccco4)CC3)cnn2-c2cccc(F)c2)CC1 -0.961%
O=C(Nc1cccc(F)c1)c1ccc2snnc2c1 5.81%
Cc1ccc(C)c(Nc2nnc(-n3nc(C)cc3C)c3ccccc23)c1 -24.1%
CCN(c1ccccc1)S(=O)(=O)c1nnc(NC(=O)c2cccs2)s1 -32.3%
Cc1ccc(-n2nc(C(=O)N3CCC(C)CC3)c(=O)n(C)c2=O)cc1 -5.67%
CCOc1ccccc1NC(=O)CSc1nc2c(oc3ccccc32)c(=O)n1-c1ccc(C)c(C)c1 -21.3%
COc1cc(OC)c(OC)cc1/C=C/c1nc2cc3ccccc3cc2c(=O)n1-c1ccc(Cl)cc1 -22.5%
CCOC(=O)CC(NS(=O)(=O)c1ccc2[nH]c3c(c2c1)CCCC3)c1ccccc1Cl (stereo not drawn) -30.6%
CC(C)OCCCNC(=O)c1ccc2c(c1)N(Cc1c(F)cccc1Cl)C(=O)c1ccccc1S2 -38.9%
COc1ccc(-c2nn3c(=O)cc(CN4CCN(C(=O)c5ccc(C(C)(C)C)cc5)CC4)nc3s2)cc1 -8.82%
Cc1ccc(Oc2c(C(F)(F)F)oc3c(CN4CCCCC4C)c(O)ccc3c2=O)cc1 (stereo not drawn) -5%
COc1ccc(C(=O)NCC(c2cccnc2)N2CCc3ccccc32)cc1 (stereo not drawn) -39.8%
CCOC(=O)c1c(N)n(-c2ccc(C)c(Cl)c2)c2nc3ccccc3nc12 -6.8%
O=C(CCC1N=C2c3ccccc3N=C(SCc3ccc(F)cc3)N2C1=O)NCc1cccs1 (stereo not drawn) -17.8%
CC1=C(c2ccc(C)c(C)c2)S(=O)(=O)N(Cc2ccc(C(=O)NCc3cccc(C)c3)cc2)C1=O -21%
